Counter-ions that a name gives are not always drawn. ± gives the standard deviation of the averaged measurements. Whole data set: some 3,200 compounds, median “nuclei count (viability) relative to DMSO” near 99, cut for the lowest 2% near 16. This is one part of the list.

This experiment deals with U2OS. The experiment is described as follows: nuclei count (viability) relative to DMSO (% of DMSO); higher = more viable cells. Conditions: 10 µM; 24 h. The protocol: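 Primary image-based screen in U2OS cells: compounds at 10 uM for 24 h, then a 1 h o-propargyl-puromycin (OPP) pulse, click labelling, and high-throughput microscopy. Mean cytoplasmic OPP intensity and nuclei count were normalised to DMSO wells within each plate (DMSO = 100) and averaged over triplicate plates.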
The compound `C=CC1=C(C(=O)O)N2C(=O)[C@@H](NC(=O)/C(=N\OCC(=O)O)c3csc(N)n3)[C@H]2SC1` [Cefixime] gave a nuclei count of 97.3.
In turn, `COc1c(OCCCN2CCOCC2)ccc2c1N=C(NC(=O)c1cnc(N)nc1)N1CCN=C21` showed a nuclei count of 93.2.
For `[I-].[K+]` [Potassium iodide] the value was 106; for `O=C1N(c2ccccc2)c2ccccc2C1(Cc1ccncc1)Cc1ccncc1` [Linopirdine dihydrochloride], 103.
`CC(C)CCC[C@@H](C)[C@H]1CC[C@H]2[C@@H]3C(=O)C=C4C[C@@H](O)CC[C@]4(C)[C@H]3CC[C@]12C` [7-Ketocholesterol] had a nuclei count of 102.
The compound `Cc1cc(-n2c(=O)[nH]c(=O)n(C)c2=O)ccc1Oc1ccc(SC(F)(F)F)cc1` [Toltrazuril] had a nuclei count of 112.
`Cc1ccccc1N1C(=O)c2cc(S(N)(=O)=O)c(Cl)cc2NC1C` (stereo not drawn) [Metolazone] yielded a nuclei count of 107.
In the case of `COc1nc(-c2ccc3c(c2)OCO3)n(-c2ccc(NC(=O)CSc3ccccc3)cc2)n1` [SecinH3], the nuclei count stood at 100.
For `O=C(Nc1ccc(-c2ccnc(Nc3ccc(N4CCOCC4)cc3)n2)cc1)C1CCCN1` (stereo not drawn), the nuclei count was 94.3.
`CCS(=O)(=O)Nc1ccc2c(c1)/C(=C(/Nc1ccc(CN3CCCCC3)cc1)c1ccccc1)C(=O)N2` [Hesperadin] gave a nuclei count of 35.2.
`COc1ccc2[nH]c([S+]([O-])Cc3ncc(C)c(OC)c3C)nc2c1` (stereo not drawn) [Omeprazole] had a nuclei count of 103.9 ± 0.25.
`Nc1cccc2c1CN(C1CCC(=O)NC1=O)C2=O` (stereo not drawn) [Lenalidomide (Revlimid)]: the nuclei count turned out to be 110.
Under `CC(=O)Nc1ccc(O)cc1` [Acetaminophen] stands 105 ± 1.2; under `Brc1c(NC2=NCCN2)ccc2nccnc12` [UK 14,304 tartrate], 108; under `Brc1c(NC2=NCCN2)ccc2nccnc12`, 89.5.
The compound `CN(C)CCOC(=O)COc1ccc(Cl)cc1` [Meclofenoxate hydrochloride] showed a nuclei count of 102.
`CC(C)(C)c1cc(O)ccc1O` [tert-Butylhydroquinone] gave a nuclei count of 107.
For the compound `N[C@H](C(=O)O)[C@H](OCc1ccccc1)C(=O)O` (racemic), the nuclei count was determined as 89.6.
The compound `N=C(N)N/N=C/c1c(Cl)cccc1Cl` [Guanabenz acetate] came in with a nuclei count of 96 ± 2.9.
For `OC(CCN1CCCCC1)(c1ccccc1)C1CCCCC1` (stereo not drawn) [Trihexyphenidyl-D,L Hydrochloride] the value was 99.4.
Compound `CCCc1nc(C(C)(C)O)c(C(=O)O)n1Cc1ccc(-c2ccccc2-c2nnn[nH]2)cc1` [Olmesartan] returned a nuclei count of 101.
Compound `OC[C@H]1NC[C@@H](O)[C@@H](O)[C@@H]1O` [1-Deoxymannojirimycin hydrochloride] had a nuclei count of 101.
Take `c1ccc2nc(C3=NCCN3)cnc2c1` [BU 239 hydrochloride]: the nuclei count was 107.

(Values after the supplement of paper PMC8183993.)
